Reference: the supplement of paper PMC4967469

Assays:
Assay in all cases: Viability of human cancer cell lines after 72 h of drug (GDSC screen)
[1] = compound: COc1cc([C@@H]2c3cc4c(cc3[C@@H](O[C@@H]3O[C@@H]5CO[C@@H](C)O[C@H]5[C@H](O)[C@H]3O)[C@H]3COC(=O)[C@H]23)OCO4)cc(OC)c1O [Etoposide]; conditions: top dose 16 µM
Method: (§1)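 Human cancer cell lines in 384-well plates, medium with 10% serum, drug for 72 h over a 256-fold dose range (nine 2-fold or five 4-fold steps up to the top dose). Adherent lines were fixed and stained with the nucleic acid dye Syto60, suspension lines read with resazurin; signal relative to control wells, capped at 0 and 100%. One two-parameter sigmoid per drug and line, fitted in a mixed model over all curves with the slope shared within a line.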

[2] = compound: COc1ccc(C(=O)CC2(O)C(=O)Nc3c(Cl)ccc(Cl)c32)cc1 [YK 4-279]; conditions: top dose 10 µM
Method: as §1

[3] = compound: COc1cc(C(=O)NC2CCN(C)CC2)ccc1Nc1ncc2c(n1)N(C1CCCC1)C(C)CC(=O)N2C [NPK76-II-72-1]; conditions: top dose 10.24 µM; top dose inferred
Method: as §1

[4] = compound: C=C(c1ccc(C(=O)O)cc1)c1cc2c(cc1C)C(C)(C)CCC2(C)C [Bexarotene]; conditions: top dose 8 µM
Method: as §1

[5] = compound: Cc1ccc2nc(NCCN)c3ncc(C)n3c2c1 [BMS-345541]; conditions: top dose 16 µM
Method: as §1

[6] = compound: O=C(O)c1ccc(-c2c[nH]c3ncc(-c4ccccc4)cc23)cc1C1CCCC1 [GSK-650394]; conditions: top dose 16 µM; top dose inferred
Method: as §1

[7] = compound: NC(=O)Nc1cc(-c2cccc(F)c2)sc1C(=O)N[C@H]1CCCNC1 [AZD7762]; conditions: top dose 2 µM
Method: as §1

[8] = compound: Oc1nc(-c2ccc(C(F)(F)F)cc2)nc2c1CSCC2 [XAV 939]; conditions: top dose 5 µM; top dose inferred
Method: as §1

Cell Line | AUC [1] | pIC50 [1] | AUC [2] | pIC50 [2] | AUC [3] | pIC50 [3] | AUC [4] | pIC50 [4] | AUC [5] | pIC50 [5] | AUC [6] | pIC50 [6] | AUC [7] | pIC50 [7] | AUC [8] | pIC50 [8]
JHH-6 (liver, adherent) | 0.774 | 5.20 | 0.733 | 5.53 | 0.943 | < 4.99 | 0.941 | < 5.10 | 0.912 | < 4.80 | 0.792 | 5.13 | 0.931 | < 5.70 | 0.976 | < 5.30
JHH-7 (liver, adherent) | 0.301 | 6.54 | 0.633 | 5.85 | 0.9 | < 4.99 | 0.909 | < 5.10 | 0.915 | < 4.80 | 0.583 | 5.78 | 0.927 | < 5.70 | 0.988 | < 5.30
JHU-022 (head and neck, adherent) | 0.871 | < 4.80 | 0.806 | 5.17 | 0.981 | < 4.99 | 0.98 | < 5.10 | 0.952 | < 4.80 | 0.972 | < 4.80 | 0.496 | 6.91 | 0.965 | < 5.30
JIMT-1 (breast, adherent) | 0.739 | 5.29 | 0.615 | 5.88 | 0.982 | < 4.99 | 0.943 | < 5.10 | 0.942 | < 4.80 | 0.913 | < 4.80 | 0.674 | 6.40 | 0.917 | < 5.30
JJN-3 (haematopoietic neoplasm, suspension) | 0.928 | < 4.80 | 0.723 | 5.63 | 0.735 | 5.59 | 0.92 | < 5.10 | 0.83 | 5.12 | 0.935 | < 4.80 | 0.729 | 6.32 | 0.987 | < 5.30
JM1 (B-cell lymphoma, suspension) | 0.229 | 6.72 | 0.822 | 5.32 | 0.73 | 5.59 | 0.975 | < 5.10 | 0.778 | 5.25 | 0.884 | 4.88 | 0.553 | 6.77 | 0.974 | < 5.30
JURL-MK1 (chronic myeloid leukaemia, suspension) | 0.714 | 5.40 | 0.815 | 5.26 | 0.618 | 5.87 | 0.931 | < 5.10 | 0.667 | 5.54 | 0.835 | 4.98 | 0.339 | 7.35 | 0.953 | < 5.30
JVM-2 (lymphoid neoplasm, suspension) | 0.952 | < 4.80 | 0.663 | 5.70 | 0.969 | < 4.99 | 0.979 | < 5.10 | 0.903 | < 4.80 | 0.977 | < 4.80 | 0.664 | 6.40 | 0.962 | < 5.30
JVM-3 (lymphoid neoplasm, suspension) | 0.985 | < 4.80 | 0.518 | 6.15 | 0.869 | 5.01 | 0.985 | < 5.10 | 0.912 | < 4.80 | 0.984 | < 4.80 | 0.467 | 6.99 | 0.946 | < 5.30
JiyoyeP-2003 (Burkitt lymphoma, suspension) | 0.661 | 5.58 | 0.817 | 5.32 | 0.889 | 5.04 | 0.922 | < 5.10 | 0.868 | 4.93 | 0.949 | < 4.80 | 0.559 | 6.75 | 0.978 | < 5.30
K2 (melanoma, adherent) | 0.95 | < 4.80 | 0.64 | 5.77 | 0.945 | < 4.99 | 0.926 | < 5.10 | 0.887 | < 4.80 | 0.931 | < 4.80 | 0.716 | 6.21 | 0.98 | < 5.30
KARPAS-45 (lymphoblastic leukaemia, suspension) | 0.933 | < 4.80 | 0.68 | 5.74 | 0.389 | 6.47 | 0.976 | < 5.10 | 0.491 | 6.02 | 0.833 | 5.10 | 0.573 | 6.72 | 0.984 | < 5.30
KARPAS-299 (anaplastic large cell lymphoma, suspension) | 0.735 | 5.39 | 0.651 | 5.82 | 0.822 | 5.33 | 0.983 | < 5.10 | 0.668 | 5.57 | 0.989 | < 4.80 | 0.303 | 7.41 | 0.982 | < 5.30
KARPAS-620 (haematopoietic neoplasm, suspension) | 0.847 | 5.03 | 0.83 | 5.29 | 0.433 | 6.36 | 0.779 | 5.55 | 0.863 | 4.97 | 0.962 | < 4.80 | 0.668 | 6.47 | 0.985 | < 5.30
KCL-22 (chronic myeloid leukaemia, suspension) | 0.743 | 5.37 | 0.668 | 5.77 | 0.732 | 5.59 | 0.906 | 5.11 | 0.856 | 5.01 | 0.831 | 5.10 | 0.527 | 6.84 | 0.982 | < 5.30
KELLY (neuroblastoma, adherent) | 0.794 | 5.18 | 0.663 | 5.77 | 0.782 | 5.41 | 0.978 | < 5.10 | 0.841 | 5.01 | 0.971 | < 4.80 | 0.358 | 7.28 | 0.986 | < 5.30

pIC50: −log10 of the molar value. The IC50 comes from the fitted curve, where viability falls to half of the control; where the fit passes the top or lowest dose, that dose stands as a limit. AUC is the area under the same curve over the 256-fold range up to the top dose, as a fraction; it is 1 without any effect and falls as sensitivity rises. For some of these results: Where the top dose is marked as inferred, it was derived from the fitted curves, not read from the paper.
